# Test results from the supplement of paper PMC8728848.
# This is one part of the list.
# B1: Epa13 (Candida glabrata) (protein)
# chain: MGSSHHHHHHSSGLVPRGSHMASDSSENGYAHGCSPSIRAKLKPGLSMEIYSYALRPTDDHCWDSAYLDPMFPRTGYLTHKLLGKAEGIIGPLNFLAKNPACIPAVSTLPLAFHFPKPFTITNFTMLLYGYLSPKKTGKYTFKLLADDLLLMNFGADNAFDCCSHDATKDNIGEYVAYSVWPGVNKNVTVYLESGIYYPLRLFFNNRDAIAQLDFAYYFNDSPIRQTDFSGMFFSIPDSVKCPANI
# Columns and labels:
# Test in all cases: glycan array binding signal (z-score within array); higher = stronger binding
# Settings in all cases: glycan notation: IUPAC condensed, linker removed
# [1] = molecular target: GlcNAc(a1-4)Gal(b1-3)GlcNAc
# Procedure, shortened: (§1)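 Glycan array binding is given as a within-array Z-score, which can be read as non-binding when negative. The arrays, 3228 of them, came from the Consortium for Functional Glycomics database and were retained only where the protein sequence was available. Z-scores were averaged across arrays of the same protein sequence at different concentrations or buffers and across linkers.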
# [2] = molecular target: GlcNAc(a1-4)Gal(b1-4)GalNAc
# Procedure, shortened: as §1
# [3] = molecular target: GlcNAc(a1-4)Gal(b1-4)GlcNAc
# Procedure, shortened: as §1
# [4] = molecular target: GlcNAc(a1-4)Gal(b1-4)GlcNAc(b1-3)Gal(b1-4)Glc
# Procedure, shortened: as §1
# [5] = molecular target: GlcNAc(a1-4)Gal(b1-4)GlcNAc(b1-3)Gal(b1-4)GlcNAc
# Procedure, shortened: as §1
# [6] = molecular target: GlcNAc(a1-4)Gal(b1-4)GlcNAc(b1-3)Gal(b1-4)GlcNAc(b1-3)Gal(b1-4)GlcNAc
# Procedure, shortened: as §1
# [7] = molecular target: GlcNAc(a1-4)Gal(b1-4)GlcNAc(b1-3)Gal(b1-4)[Fuc(a1-3)]GlcNAc(b1-3)Gal(b1-4)[Fuc(a1-3)]GlcNAc
# Procedure, shortened: as §1
# [8] = molecular target: GlcNAc(a1-6)Gal(b1-4)GlcNAc
# Procedure, shortened: as §1
# [9] = molecular target: GlcNAc(b1-2)Gal(b1-3)GalNAc
# Procedure, shortened: as §1
# [10] = molecular target: GlcNAc(b1-2)Man(a1-3)[GlcNAc(b1-2)Man(a1-6)]Man(b1-4)GlcNAc(b1-4)GlcNAc
# Procedure, shortened: as §1
# [11] = molecular target: GlcNAc(b1-2)Man(a1-3)[GlcNAc(b1-2)Man(a1-6)]Man(b1-4)GlcNAc(b1-4)[Fuc(a1-6)]GlcNAc
# Procedure, shortened: as §1
# [12] = molecular target: GlcNAc(b1-2)Man(a1-3)[GlcNAc(b1-4)][GlcNAc(b1-2)Man(a1-6)]Man(b1-4)GlcNAc(b1-4)GlcNAc
# Procedure, shortened: as §1
# [13] = molecular target: GlcNAc(b1-2)Man(a1-3)[GlcNAc(b1-4)][GlcNAc(b1-2)Man(a1-6)]Man(b1-4)GlcNAc(b1-4)[Fuc(a1-6)]GlcNAc
# Procedure, shortened: as §1
# [14] = molecular target: GlcNAc(b1-2)[GlcNAc(b1-4)]Man(a1-3)[GlcNAc(b1-2)Man(a1-6)]Man(b1-4)GlcNAc(b1-4)GlcNAc
# Procedure, shortened: as §1
# [15] = molecular target: GlcNAc(b1-2)[GlcNAc(b1-4)]Man(a1-3)[GlcNAc(b1-4)][GlcNAc(b1-2)Man(a1-6)]Man(b1-4)GlcNAc(b1-4)GlcNAc
# Procedure, shortened: as §1
# [16] = molecular target: GlcNAc(b1-2)[GlcNAc(b1-4)]Man(a1-3)[GlcNAc(b1-4)][GlcNAc(b1-2)[GlcNAc(b1-6)]Man(a1-6)]Man(b1-4)GlcNAc(b1-4)GlcNAc
# Procedure, shortened: as §1
# [17] = molecular target: GlcNAc(b1-2)[GlcNAc(b1-4)]Man(a1-3)[GlcNAc(b1-4)][GlcNAc(b1-2)[GlcNAc(b1-6)]Man(a1-6)]Man(b1-4)GlcNAc(b1-4)[Fuc(a1-6)]GlcNAc
# Procedure, shortened: as §1
# [18] = molecular target: GlcNAc(b1-2)[GlcNAc(b1-6)]Man(a1-6)[GlcNAc(b1-2)Man(a1-3)]Man(b1-4)GlcNAc(b1-4)GlcNAc
# Procedure, shortened: as §1
# [19] = molecular target: GlcNAc(b1-2)[GlcNAc(b1-6)]Man(a1-6)[GlcNAc(b1-2)Man(a1-3)]Man(b1-4)GlcNAc(b1-4)[Fuc(a1-6)]GlcNAc
# Procedure, shortened: as §1
# [20] = molecular target: GlcNAc(b1-2)[GlcNAc(b1-6)]Man(a1-6)[GlcNAc(b1-4)][GlcNAc(b1-2)Man(a1-3)]Man(b1-4)GlcNAc(b1-4)GlcNAc
# Procedure, shortened: as §1
# GlcNAc(b1-3)Fuc = molecular target: GlcNAc(b1-3)Fuc
# Procedure, shortened: as §1
# GlcNAc(b1-3)Gal = molecular target: GlcNAc(b1-3)Gal
# Procedure, shortened: as §1
# [21] = molecular target: GlcNAc(b1-3)Gal(b1-3)GalNAc
# Procedure, shortened: as §1
# GlcNAc(b1-3)Gal(b1-4)Glc = molecular target: GlcNAc(b1-3)Gal(b1-4)Glc
# Procedure, shortened: as §1
# [22] = molecular target: GlcNAc(b1-3)Gal(b1-4)GlcNAc
# Procedure, shortened: as §1
# [23] = molecular target: GlcNAc(b1-3)Gal(b1-4)GlcNAc(b1-2)Man(a1-3)[GlcNAc(b1-3)Gal(b1-4)GlcNAc(b1-2)Man(a1-6)]Man(b1-4)GlcNAc(b1-4)GlcNAc
# Procedure, shortened: as §1
# [24] = molecular target: GlcNAc(b1-3)Gal(b1-4)GlcNAc(b1-2)Man(a1-3)[GlcNAc(b1-3)Gal(b1-4)GlcNAc(b1-2)Man(a1-6)]Man(b1-4)GlcNAc(b1-4)[Fuc(a1-6)]GlcNAc
# Procedure, shortened: as §1
# [25] = molecular target: GlcNAc(b1-3)Gal(b1-4)GlcNAc(b1-2)[GlcNAc(b1-3)Gal(b1-4)GlcNAc(b1-6)]Man(a1-6)[GlcNAc(b1-3)Gal(b1-4)GlcNAc(b1-2)Man(a1-3)]Man(b1-4)GlcNAc(b1-4)GlcNAc
# Procedure, shortened: as §1
# [26] = molecular target: GlcNAc(b1-3)Gal(b1-4)GlcNAc(b1-3)Gal(b1-4)GlcNAc
# Procedure, shortened: as §1
# [27] = molecular target: GlcNAc(b1-3)Gal(b1-4)GlcNAc(b1-3)Gal(b1-4)GlcNAc(b1-2)Man(a1-3)[GlcNAc(b1-3)Gal(b1-4)GlcNAc(b1-3)Gal(b1-4)GlcNAc(b1-2)Man(a1-6)]Man(b1-4)GlcNAc(b1-4)GlcNAc
# Procedure, shortened: as §1
# [28] = molecular target: GlcNAc(b1-3)Gal(b1-4)GlcNAc(b1-3)Gal(b1-4)GlcNAc(b1-2)Man(a1-3)[GlcNAc(b1-3)Gal(b1-4)GlcNAc(b1-3)Gal(b1-4)GlcNAc(b1-2)Man(a1-6)]Man(b1-4)GlcNAc(b1-4)[Fuc(a1-6)]GlcNAc
# Procedure, shortened: as §1
# [29] = molecular target: GlcNAc(b1-3)Gal(b1-4)GlcNAc(b1-3)Gal(b1-4)GlcNAc(b1-2)[GlcNAc(b1-3)Gal(b1-4)GlcNAc(b1-3)Gal(b1-4)GlcNAc(b1-6)]Man(a1-6)[GlcNAc(b1-3)Gal(b1-4)GlcNAc(b1-3)Gal(b1-4)GlcNAc(b1-2)Man(a1-3)]Man(b1-4)GlcNAc(b1-4)[Fuc(a1-6)]GlcNAc
# Procedure, shortened: as §1
# [30] = molecular target: GlcNAc(b1-3)Gal(b1-4)GlcNAc(b1-3)Gal(b1-4)GlcNAc(b1-3)Gal(b1-4)GlcNAc(b1-2)Man(a1-3)[GlcNAc(b1-3)Gal(b1-4)GlcNAc(b1-3)Gal(b1-4)GlcNAc(b1-3)Gal(b1-4)GlcNAc(b1-2)Man(a1-6)]Man(b1-4)GlcNAc(b1-4)GlcNAc
# Procedure, shortened: as §1
# [31] = molecular target: GlcNAc(b1-3)Gal(b1-4)GlcNAc(b1-3)Gal(b1-4)GlcNAc(b1-3)Gal(b1-4)GlcNAc(b1-2)Man(a1-3)[GlcNAc(b1-3)Gal(b1-4)GlcNAc(b1-3)Gal(b1-4)GlcNAc(b1-3)Gal(b1-4)GlcNAc(b1-2)Man(a1-6)]Man(b1-4)GlcNAc(b1-4)[Fuc(a1-6)]GlcNAc
# Procedure, shortened: as §1
# [32] = molecular target: GlcNAc(b1-3)Gal(b1-4)GlcNAc(b1-3)Gal(b1-4)GlcNAc(b1-3)Gal(b1-4)GlcNAc(b1-2)[GlcNAc(b1-3)Gal(b1-4)GlcNAc(b1-3)Gal(b1-4)GlcNAc(b1-3)Gal(b1-4)GlcNAc(b1-6)]Man(a1-6)[GlcNAc(b1-3)Gal(b1-4)GlcNAc(b1-3)Gal(b1-4)GlcNAc(b1-3)Gal(b1-4)GlcNAc(b1-2)Man(a1-3)]Man(b1-4)GlcNAc(b1-4)[Fuc(a1-6)]GlcNAc
# Procedure, shortened: as §1
# [33] = molecular target: GlcNAc(b1-3)Gal(b1-4)GlcNAc(b1-3)Gal(b1-4)GlcNAc(b1-3)Gal(b1-4)GlcNAc(b1-3)Gal(b1-4)GlcNAc(b1-2)Man(a1-3)[GlcNAc(b1-3)Gal(b1-4)GlcNAc(b1-3)Gal(b1-4)GlcNAc(b1-3)Gal(b1-4)GlcNAc(b1-3)Gal(b1-4)GlcNAc(b1-2)Man(a1-6)]Man(b1-4)GlcNAc(b1-4)GlcNAc
# Procedure, shortened: as §1
# [34] = molecular target: GlcNAc(b1-3)Gal(b1-4)GlcNAc(b1-3)Gal(b1-4)GlcNAc(b1-3)Gal(b1-4)GlcNAc(b1-3)Gal(b1-4)GlcNAc(b1-2)Man(a1-3)[GlcNAc(b1-3)Gal(b1-4)GlcNAc(b1-3)Gal(b1-4)GlcNAc(b1-3)Gal(b1-4)GlcNAc(b1-3)Gal(b1-4)GlcNAc(b1-2)Man(a1-6)]Man(b1-4)GlcNAc(b1-4)[Fuc(a1-6)]GlcNAc
# Procedure, shortened: as §1
# [35] = molecular target: GlcNAc(b1-3)Gal(b1-4)GlcNAc(b1-3)Gal(b1-4)GlcNAc(b1-3)Gal(b1-4)GlcNAc(b1-3)Gal(b1-4)GlcNAc(b1-2)[GlcNAc(b1-3)Gal(b1-4)GlcNAc(b1-3)Gal(b1-4)GlcNAc(b1-3)Gal(b1-4)GlcNAc(b1-3)Gal(b1-4)GlcNAc(b1-6)]Man(a1-6)[GlcNAc(b1-3)Gal(b1-4)GlcNAc(b1-3)Gal(b1-4)GlcNAc(b1-3)Gal(b1-4)GlcNAc(b1-3)Gal(b1-4)GlcNAc(b1-2)Man(a1-3)]Man(b1-4)GlcNAc(b1-4)[Fuc(a1-6)]GlcNAc
# Procedure, shortened: as §1
binder,measurement,setting,value
B1,glycan array binding signal (z-score),[1],-0.421
same,glycan array binding signal (z-score),[2],-0.031
same,glycan array binding signal (z-score),[3],-0.274
same,glycan array binding signal (z-score),[4],-0.672
same,glycan array binding signal (z-score),[5],0.04
same,glycan array binding signal (z-score),[6],-0.382
same,glycan array binding signal (z-score),[7],-0.218
same,glycan array binding signal (z-score),[8],-0.205
same,glycan array binding signal (z-score),[9],-0.603
same,glycan array binding signal (z-score),[10],-0.354
same,glycan array binding signal (z-score),[11],-0.136
same,glycan array binding signal (z-score),[12],-0.041
same,glycan array binding signal (z-score),[13],0.145
same,glycan array binding signal (z-score),[14],-0.393
same,glycan array binding signal (z-score),[15],-0.299
same,glycan array binding signal (z-score),[16],-0.275
same,glycan array binding signal (z-score),[17],-0.346
same,glycan array binding signal (z-score),[18],-0.545
same,glycan array binding signal (z-score),[19],-0.456
same,glycan array binding signal (z-score),[20],-0.418
same,glycan array binding signal (z-score),GlcNAc(b1-3)Fuc,-0.055
same,glycan array binding signal (z-score),GlcNAc(b1-3)Gal,-0.445
same,glycan array binding signal (z-score),[21],-0.023
same,glycan array binding signal (z-score),GlcNAc(b1-3)Gal(b1-4)Glc,-0.135
same,glycan array binding signal (z-score),[22],-0.306
same,glycan array binding signal (z-score),[23],-0.353
same,glycan array binding signal (z-score),[24],-0.222
same,glycan array binding signal (z-score),[25],0.485
same,glycan array binding signal (z-score),[26],-0.069
same,glycan array binding signal (z-score),[27],0.456
same,glycan array binding signal (z-score),[28],0.201
same,glycan array binding signal (z-score),[29],-0.03
same,glycan array binding signal (z-score),[30],-0.119
same,glycan array binding signal (z-score),[31],0.212
same,glycan array binding signal (z-score),[32],0.144
same,glycan array binding signal (z-score),[33],0.07
same,glycan array binding signal (z-score),[34],-0.207
same,glycan array binding signal (z-score),[35],0.231
